Assay results published in paper PMC12136788.
Some of the results follow.

B1: chr10:103289619:103289731:+|3pUTR|ENSG00000148798|unk|total|mutant (ssRNA)
RNA: GGGAGUUCUACAGUCCGACGAUCAUGAGUGGAAAAAGCCAAGGUGUCAUUUAUGUGUCAGUUCAUUUGUGGUGAUACCGAAUCCGCUUUUUCAUCCCCUUACCCUCCGAAUCCACGUAUUCCCCUUCCCACCCGCCCCGGUCACAACAGAGGAUUGAGCAUCA
B2: ENSG00000106305:stop:overlap|stop_codon|ENSG00000106305|stop_codon|NA|stop_codon (ssRNA)
RNA: GGGAGUUCUACAGUCCGACGAUCACGUGCACGGCAGGAGCUACGGCCCAGCGCCGGGCGCUGGCCACGUGCAGCCUCUCCAGUAGCUGGGAUUACAGGUGCCCCCCACCAAGCCCAGCUAAUUUUUGUGUUUCAGUAGAAAUGCAACAGAGGAUUGAGCAUCA
B3: chr8:144876950:144881514:-|three_prime_utr|ENSG00000196150|control|control|control (ssRNA)
RNA: GGGAGUUCUACAGUCCGACGAUCGAAACUGCAUGUGGAACCACAAGCAGCCUUCAGCCCAAGAGAAGUCUCUGUUAACUCUAUAGGAAGCUUUUCUUUGGCGAUUCAGUGUCACAAAAUAACUCCAGAAAGAAGCACUUAGCGCAACAGAGGAUUGAGCAUCA
B4: ENSG00000105438:stop:overlap|stop_codon|ENSG00000105438|stop_codon|NA|stop_codon (ssRNA)
RNA: GGGAGUUCUACAGUCCGACGAUCAUUUCUUCUACCUCUAUAUCACCAAAGUCCUAAAGGGGAAGAAGUUGAGUUUGCCGGCAUAGCCCCGGUCCUCUCCAUCUCUCUCCUCGGCAGCAGCGGGAGGCAGAGGAAGGCGGCAGACAACAGAGGAUUGAGCAUCA
B5: chr12:55956948:55957671:-|CDS|ENSG00000185664|control|control|control (ssRNA)
RNA: GGGAGUUCUACAGUCCGACGAUCGUGCUUUCUGGAACCACAGCUGCACAGGUAACAACUACAGAGUGGGUGGAGACCACAGCUAGAGAGCUACCUAUCCCUGAGCCUGAAGGUCCAGAUGCCAGCUCAAUCAUGUCUACGGAACAACAGAGGAUUGAGCAUCA
B6: chr1:162599429:162599460:+|3pUTR|ENSG00000117143|msi1_unk|total|mutant (ssRNA)
RNA: GGGAGUUCUACAGUCCGACGAUCGGUAUUUGAACCAGAUACCAAGUUUUGUUUGCCACGACCGGAACCGCUUUUAUUUUUGACCGACCAACUGUGAACCUACAAGACGUCUUGGACAACUGAAGUUUAAAUAUCCACAGGGUUCAACAGAGGAUUGAGCAUCA
B7: ENSG00000165916:stop:overlap|stop_codon|ENSG00000165916|stop_codon|NA|stop_codon (ssRNA)
RNA: GGGAGUUCUACAGUCCGACGAUCACAUGGAAGGCAUCCUGGAGGUGCAGGCCAAGAAGAAAGCCAACCUACAAUACUACGCCUAGGGCACACAGGCCAGCCCCAGUCUCACGGCUGAAGUGCGCAAUAAAAGAUGGUUUAGGGCAACAGAGGAUUGAGCAUCA
B8: ENSG00000070961:be:win_2851|CDS|ENSG00000070961|bound_else_gene|NA|bound_elsewhere_windowed (ssRNA)
RNA: GGGAGUUCUACAGUCCGACGAUCGAAAAGUUUUUUGACAUUGAUAGUGGAAGAAAUGCUCCUUUGCAUGCUCCUCCUUCAGAACAUUAUACUAUUGUUUUUAAUACCUUUGUGCUGAUGCAACUUUUCAACGAAAUAAAUGCCCAACAGAGGAUUGAGCAUCA
B9: chr13:77097425:77097526:-|CDS|ENSG00000005810|msi1|FALSE|unique (ssRNA)
RNA: GGGAGUUCUACAGUCCGACGAUCAGAAAAGGCAGAAGUUAGGCCCAGGGGUAAUUUGUUUGGAGAGAUGGCCCAGCUGGCAGUAGGAGGACCAGAGAAAGAUACCAUCUGUGAACUGUGUGGGGAGUCACAUCCAUACCCGGUCAACAGAGGAUUGAGCAUCA
B10: chr13:20975083:20975184:-|CDS|ENSG00000150457|msi1|total|mutant (ssRNA)
RNA: GGGAGUUCUACAGUCCGACGAUCGCCAGCCCCCUACGUUCCCACCAUCAGCCACCCCAUGGACACCUCGAAUUUCGACCCCGCCGAUGAAGAAAGCCCUUGGAACGAUGCCAGCGAAGGCCGCACCAAGGCCUGGGACACACUCAACAGAGGAUUGAGCAUCA
B11: ENSG00000107863:be:win_2601|CDS|ENSG00000107863|bound_else_gene|NA|bound_elsewhere_windowed (ssRNA)
RNA: GGGAGUUCUACAGUCCGACGAUCCCUGGAUGCUCAGCCCAACUCAAAGACAGAAAGAUCAAAAUCAUAUGAUGAGGGUCUGGAUGAUUACAGAGAAGAUGCAAAAUUGUCCUUUAAGCACGUAUCUAGUCUGAAGGGAAUCAACAACAGAGGAUUGAGCAUCA
B12: chr8:17644361:17644462:-|3pUTR|ENSG00000129422|msi1|total|mutant (ssRNA)
RNA: GGGAGUUCUACAGUCCGACGAUCCAACAUUGUGAUGUCAGUAUUUACUAAUCUACAUUCAGUGGCUGUACAAAUAACAGCUGCCGUAAGAAGAGAUUCAGGAUGCCCGAGGUGAAUAUUUGGGUCAUUUACAUGUACACUACACAACAGAGGAUUGAGCAUCA
B13: chr1:37566712:37566813:+|3pUTR|ENSG00000163879|unk|FALSE|unique (ssRNA)
RNA: GGGAGUUCUACAGUCCGACGAUCGCUUUAUUUCCCUAGCACUGGUGAAGGGCUUCAACUGUCAAACCUCAGAACAAAUGCAUUAGGGCCUUAGAAAUGUCAAUGGGGCAGGAAGAAAACACAAUUUCUAACUGCCUGUUUUUGCAACAGAGGAUUGAGCAUCA
B14: chr7:101206146:101206247:-|3pUTR|ENSG00000106397|msi1|total|mutant (ssRNA)
RNA: GGGAGUUCUACAGUCCGACGAUCCUUUGUCGACCCCUGACACUCAACCACUCUGCCAAACCUGCCCUGCCAUUGUGCCUUUUCCGGGGGCCUGGCCCCCGUCCUGGGAGUUGGGGGAUGGGUCUCUCUGUCUCCCCACUUCCUCAACAGAGGAUUGAGCAUCA

What follows are binders tested against T1, UNK ZnF1-6 (called full-length) (human, UniProt Q9C0B0 30-357) (assay: nsRBNS (natural sequence RNA bind-n-seq); RBNS binding buffer (assumed for nsRBNS): 25 mM Tris pH 7.5, 150 mM KCl, 3 mM MgCl2, 0.01% Triton X-100, 500 ug/ml BSA, 20 U/ml SUPERase-In, 4 C; UNK is unkempt and MSI1 is Musashi-1; names of the RNAs are library labels; protein concentration not given here; high values mean tight binding).
T1 sequence: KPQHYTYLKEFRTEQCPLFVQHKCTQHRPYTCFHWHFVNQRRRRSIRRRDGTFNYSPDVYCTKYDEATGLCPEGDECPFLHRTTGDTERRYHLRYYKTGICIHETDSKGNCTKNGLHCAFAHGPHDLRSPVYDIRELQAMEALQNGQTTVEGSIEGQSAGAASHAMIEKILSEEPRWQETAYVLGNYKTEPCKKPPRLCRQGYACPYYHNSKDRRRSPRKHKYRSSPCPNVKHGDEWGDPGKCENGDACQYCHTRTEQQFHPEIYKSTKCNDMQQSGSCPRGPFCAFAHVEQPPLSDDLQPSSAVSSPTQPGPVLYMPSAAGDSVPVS
Binder B1 has a binding signal of 0.476 enrichment R.
For B2, the binding signal was 0.585 enrichment R.
B3 gave a binding signal of 0.515 enrichment R.
Binder B4 has a binding signal of 0.79 enrichment R.
B5 showed a binding signal of 0.609 enrichment R.
For B6, the binding signal was 0.383 enrichment R.
With B7 the binding signal was 0.958 enrichment R.
B8 was tested, and the binding signal was 0.479 enrichment R.
B9 gave a binding signal of 1.06 enrichment R.
In the case of B10, the binding signal is reported as 0.926 enrichment R.
B11 was tested, and the binding signal was 0.436 enrichment R.
In the case of B12, the binding signal is reported as 0.264 enrichment R.
B13 gave a binding signal of 0.557 enrichment R.
For B14, the binding signal was 0.704 enrichment R.
